The BET-seq Pho4 binding data (Le et al. 2018)
The other results are listed elsewhere or left out. Values were computed here from the reads of four pooled replicates and scatter widely.

biological target: T1, Pho4 (S. cerevisiae) (UniProt P07270); test: relative binding free energy (BET-seq); higher = weaker binding; conditions: reference: library average
T1 sequence: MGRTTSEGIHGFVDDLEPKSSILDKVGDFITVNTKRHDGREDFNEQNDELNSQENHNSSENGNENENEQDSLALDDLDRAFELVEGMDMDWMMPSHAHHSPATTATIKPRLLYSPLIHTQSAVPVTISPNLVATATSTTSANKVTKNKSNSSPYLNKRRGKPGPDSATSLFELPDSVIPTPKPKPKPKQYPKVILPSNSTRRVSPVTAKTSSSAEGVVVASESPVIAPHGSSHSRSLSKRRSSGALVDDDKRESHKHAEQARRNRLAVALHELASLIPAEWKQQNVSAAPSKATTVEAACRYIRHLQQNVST

Row | Sequence | relative binding free energy
1 | TACATCACGTGGGGAT | 0.02 kcal/mol
2 | TATGGCACGTGTTTGC | -0.11 kcal/mol
3 | TGAAACACGTGGTTGG | -0.01 kcal/mol
4 | TAAGGCACGTGTGTAA | -0.12 kcal/mol
5 | AAAGACACGTGGATGG | 0 kcal/mol
6 | TTGGGCACGTGAGCGC | -0.02 kcal/mol
7 | GGGGGCACGTGCTGCA | -0.24 kcal/mol
8 | GGTGACACGTGTGGCG | 0.14 kcal/mol
9 | CTTGACACGTGTCGTG | -0.01 kcal/mol
10 | TCGTACACGTGTGGAT | 0.16 kcal/mol
11 | GGGTTCACGTGAGCCG | 0.36 kcal/mol
12 | GCATGCACGTGGAGGA | 0.11 kcal/mol
13 | GTTAGCACGTGGTTGA | -0.16 kcal/mol
14 | GGCTGCACGTGTGTTT | 0.18 kcal/mol
15 | TGAGCCACGTGTGTGT | -0.11 kcal/mol
16 | GGTGGCACGTGGCCTG | -0.17 kcal/mol
17 | TGGCACACGTGGGATT | 0.03 kcal/mol
18 | CTAGTCACGTGTTTAT | 0.07 kcal/mol
19 | TTTCACACGTGTTAGG | 0.09 kcal/mol
20 | AGGGGCACGTGCGTTG | -0.25 kcal/mol
21 | AGAGACACGTGTTTGG | 0.06 kcal/mol
22 | AGTATCACGTGGAGTG | 0.24 kcal/mol
23 | GTAGTCACGTGTGTAA | 0.04 kcal/mol
24 | ATGATCACGTGGGGTC | -0.05 kcal/mol
25 | TTCTACACGTGATTAT | 0.35 kcal/mol

Row | Sequence | relative binding free energy
26 | ATGAACACGTGGGGTG | -0.13 kcal/mol
27 | TTGGGCACGTGGTCTA | -0.22 kcal/mol
28 | AGGCGCACGTGTATGT | -0.11 kcal/mol
29 | TATTTCACGTGGTGGC | 0.28 kcal/mol
30 | TTGATCACGTGTGCGG | 0.21 kcal/mol
31 | TAATTCACGTGGGTCG | 0.04 kcal/mol
32 | GAGTGCACGTGGGGTT | -0.12 kcal/mol
33 | TGAAGCACGTGATGGG | 0.12 kcal/mol
34 | CGCAGCACGTGGTGGA | -0.07 kcal/mol
35 | TGGTGCACGTGAGTAG | 0.14 kcal/mol
36 | GGTAACACGTGTAGTT | 0.02 kcal/mol
37 | AGTTACACGTGTATAG | 0.13 kcal/mol
38 | CGGGCCACGTGTAGGG | -0.01 kcal/mol
39 | CTGTGCACGTGGGTAT | -0.12 kcal/mol
40 | ATCGGCACGTGGTATA | -0.14 kcal/mol
41 | AAGTACACGTGATTGT | 0.21 kcal/mol
42 | GTTGCCACGTGGGGTG | -0.11 kcal/mol
43 | AGTAGCACGTGTTGTC | -0.1 kcal/mol
44 | AGTTACACGTGGGTAG | -0.15 kcal/mol
45 | CTAGTCACGTGGGGTA | 0.02 kcal/mol
46 | TTGGTCACGTGGATGA | 0.19 kcal/mol
47 | AAGGTCACGTGGGTCT | 0.02 kcal/mol
48 | TGTATCACGTGGTCGT | -0.04 kcal/mol
49 | TGGATCACGTGGGATT | 0 kcal/mol
50 | TTGGGCACGTGCATAT | -0.26 kcal/mol

Row | Sequence | relative binding free energy
51 | TTATACACGTGAGTGG | 0.22 kcal/mol
52 | TGCGTCACGTGTATTT | 0.08 kcal/mol
53 | TGCCACACGTGTGGGG | 0.12 kcal/mol
54 | ATTTGCACGTGTGATA | 0.08 kcal/mol
55 | GGCTGCACGTGGGGTG | -0.15 kcal/mol
56 | TTGAGCACGTGTTCAT | -0.11 kcal/mol
57 | TGTATCACGTGATTGA | 0.28 kcal/mol
58 | GGGTTCACGTGATCAT | 0.38 kcal/mol
59 | GGGGTCACGTGCAGGG | 0.18 kcal/mol
60 | AGGAGCACGTGCTTGG | -0.2 kcal/mol
61 | ACGGGCACGTGGGGGC | -0.3 kcal/mol
62 | TGCGGCACGTGTCTGT | -0.17 kcal/mol
63 | GGCGGCACGTGCTCGG | -0.07 kcal/mol
64 | AATTTCACGTGCTAGG | 0.24 kcal/mol
65 | CGGTTCACGTGTAGGG | 0.25 kcal/mol
66 | GGGACCACGTGAGGAT | 0.65 kcal/mol
67 | GTTGGCACGTGTTATC | -0.02 kcal/mol
68 | CTTGCCACGTGGGGGA | -0.3 kcal/mol
69 | ATATGCACGTGTTCTT | -0.21 kcal/mol
70 | TTGAACACGTGGGTTA | -0.05 kcal/mol
71 | TAAGGCACGTGGTTAC | -0.07 kcal/mol
72 | AGAGGCACGTGCTGTG | -0.19 kcal/mol
73 | TGTGCCACGTGACGTG | 0.04 kcal/mol
74 | TGCATCACGTGTTGGT | 0.14 kcal/mol
75 | TTTAGCACGTGCGGAT | -0.05 kcal/mol

Row | Sequence | relative binding free energy
76 | GAGAACACGTGAGGGG | 0.42 kcal/mol
77 | AGTATCACGTGTTAGA | 0.19 kcal/mol
78 | TTAGACACGTGGGATG | -0.15 kcal/mol
79 | GGTCGCACGTGAGCGT | 0.27 kcal/mol
80 | TTTGCCACGTGTAATT | -0.04 kcal/mol
81 | ATTCGCACGTGGGAGT | -0.13 kcal/mol
82 | CGTATCACGTGTGGCT | 0.18 kcal/mol
83 | CTGATCACGTGAAGTT | 0.27 kcal/mol
84 | CTTTTCACGTGTGCGT | 0.32 kcal/mol
85 | TGGTCCACGTGGGGTA | -0.23 kcal/mol
86 | TAAGTCACGTGGTGTC | 0.14 kcal/mol
87 | AAGGTCACGTGATTAG | 0.3 kcal/mol
88 | TCATGCACGTGGTGGT | -0.07 kcal/mol
89 | ACTTTCACGTGAGGTT | 0.49 kcal/mol
90 | TAGTACACGTGGGCGT | -0.06 kcal/mol
91 | CGTTGCACGTGGTTTC | 0.01 kcal/mol
92 | GCTTGCACGTGGACGT | 0.23 kcal/mol
93 | AGAGTCACGTGTTAAA | 0.18 kcal/mol
94 | CGGTGCACGTGGCTTT | -0.07 kcal/mol
95 | CGTATCACGTGGAGGT | 0.08 kcal/mol
96 | AATAGCACGTGTTGGA | -0.11 kcal/mol
97 | GCCTTCACGTGTTGTG | 0.3 kcal/mol
98 | TACAGCACGTGTTGTG | -0.11 kcal/mol
99 | ATTAACACGTGGGGAA | -0.15 kcal/mol
100 | AATTCCACGTGTTGTG | -0.06 kcal/mol

Row | Sequence | relative binding free energy
101 | GGGGGCACGTGCCGTA | -0.06 kcal/mol
102 | GGTGTCACGTGTAGGG | 0.09 kcal/mol
103 | GTGAGCACGTGGGTGC | -0.16 kcal/mol
104 | AAGAGCACGTGGTGTT | -0.27 kcal/mol
105 | TAGAGCACGTGATTGG | -0.03 kcal/mol
106 | GAGGGCACGTGTAGAG | -0.04 kcal/mol
107 | GGAGTCACGTGATAAT | 0.4 kcal/mol
108 | TTTGCCACGTGTTCGT | -0.12 kcal/mol
109 | GGATTCACGTGCAGTT | 0.27 kcal/mol
110 | TGTTCCACGTGGGTTA | -0.11 kcal/mol
111 | GGGTTCACGTGAGCGG | 0.39 kcal/mol
112 | TCGGGCACGTGAGGCT | 0.08 kcal/mol
113 | AGGGGCACGTGTGGGG | -0.01 kcal/mol
114 | CGATGCACGTGGGGAT | -0.05 kcal/mol
115 | ATGTGCACGTGGGACT | -0.2 kcal/mol
116 | AAAGTCACGTGAGTAT | 0.24 kcal/mol
117 | CAAGTCACGTGGCGGT | 0.18 kcal/mol
118 | TGCGTCACGTGTTATA | 0.06 kcal/mol
119 | TTGTGCACGTGGTTTA | -0.05 kcal/mol
120 | GGTGGCACGTGGTGAT | -0.05 kcal/mol
121 | CGCGTCACGTGGTGAG | -0.06 kcal/mol
122 | GCTAACACGTGTGTTG | 0.07 kcal/mol
123 | TGTGTCACGTGGCTTT | 0.01 kcal/mol
124 | TTTGACACGTGGTCAG | -0.1 kcal/mol
125 | GTCTTCACGTGTAGGT | 0.22 kcal/mol

Row | Sequence | relative binding free energy
126 | TGAGACACGTGGGCGT | -0.14 kcal/mol
127 | TTGCGCACGTGAGATG | 0.28 kcal/mol
128 | ATACGCACGTGGAGTT | -0.02 kcal/mol
129 | TATTGCACGTGTGATA | -0.09 kcal/mol
130 | GTCTGCACGTGGAGTT | 0 kcal/mol
131 | TAGTTCACGTGTCTAG | 0.39 kcal/mol
132 | TTATGCACGTGGCGTT | -0.13 kcal/mol
133 | AGGGTCACGTGGGTGT | 0.07 kcal/mol
134 | GAGCTCACGTGTTGGG | 0.26 kcal/mol
135 | ACGGGCACGTGTCGTG | -0.14 kcal/mol
136 | GGCGACACGTGGGATG | -0.08 kcal/mol
137 | TTGAGCACGTGGGTAT | -0.2 kcal/mol
138 | GTGCTCACGTGAGGGC | 0.33 kcal/mol
139 | GGGGCCACGTGTAGGA | 0.03 kcal/mol
140 | ATGAGCACGTGAAAGG | 0.03 kcal/mol
141 | GATTGCACGTGCTCGG | 0 kcal/mol
142 | AAGGTCACGTGCTGTG | 0.18 kcal/mol
143 | GTATGCACGTGGCGCG | -0.2 kcal/mol
144 | GCAGGCACGTGGAGGG | -0.07 kcal/mol
145 | GATTTCACGTGCGGGG | 0.31 kcal/mol
146 | GTACTCACGTGTTGGT | 0.16 kcal/mol
